From the RNAGym collection of RNA variant scans (doi:10.1093/nar/gkz1192)
The source gives no read counts; variants with many changes may rest on few reads.

B1: CPEB3 Ribozyme (parent)
chain: UAACAGGGGGCCACAGCAGAAGCGUUCACGUCGCAGCCCCUGUCAGAUUCUGGUGAAUCUGCGAAUUCUGCUGUAUAUCUC

Variants of: B1
Test: self-cleavage, relative activity (ratio to wild type); higher = more cleavage; in vitro, sequencing
Method in brief: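 Barcoded CPEB3 ribozyme mutants, produced by rounds of error-prone PCR, self-cleaved while being transcribed with T7 RNA polymerase for 5 hours at 37°C and during a subsequent 15 min DNase I step before EDTA was added. Sequencing of template-switched cDNA on Illumina gave cleaved and total reads, and DNA sequencing assigned barcodes to variants. Each variant's relative activity is its cleaved/total read fraction divided by the unmutated ribozyme's fraction, averaged across three batches. A variant needed a minimum of 5 reads.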

Variant	self-cleavage
A15U U26C C32U A35C	0.05
A15U G16A A18U U51C U72C	0.13
A15U U25C A47U U58C U60A U76A	0.07
A15U U26A U72A G73A	1.27
A15U G33C U60C U72C	0.07
A15U C38U U51A A56G U80C	0.32
A15U U26A A45U	0.15
A15U U26C A47G U58C U60A	0.18
A15U G53U A65G	0.29
A15U G70C U80C	0.17
A15U U26A G30C U31C U69C	0.07
A15U G33A U54C A65G U67C U72C U78C	0.05
A15U U25C U31C U69A	0
A15U G46U U51C	0.16
A15U G22C U74C	0.13
A15U G19C U74C	0.21
A15U G30A U51A	0.45
A15U C38G G42A	0.08
A15U G33A U72C	0.25
A15U U25C U54C U66C U80A	0.07
A15U G16U A47G U80C	0.64
A15U U26C A35U A65U U80C	0.12
A15U U31A C62A A64C	0.09
A15U U25C A45G C62U	0.04

Variant	self-cleavage
A15U U26A C38A G42A	0.2
A15U U26A A64G U67G	0.13
A15U U26G A64G A65U	0.13
A15U U25C A28G A57U U72G U78C	0.14
A15U U25C U51C U80C	0.28
A15U U26C A45U G53A U60C	0.09
A15U U25A A28U U69C	0.07
A15U C44U U49C	0.07
A15U U26C A28G A45C A47G U60C U69C	0.11
A15U U26C A35G	1.03
A15U G61A U67A	0.17
A15U U25C A28U A75U	0.07
A15U C39G A64U	0.15
A15U G30U U31A A35U A56G	0.06
A15U G24A U31C U41C U43C A64U	0.06
A15U G73U U78C	1.28
A15U U25A A47G	0.08
A15U U26A A28G U67C	0.33
A15U U26C U41C	0.3
A15U G16C G22A A56U U58C U72A	0.12
A15U G16U U31C A64G	0.08
A15U C38A U41C	0.22
A15U G30U U72A	0.12
A15U U26C A28G A45U G46A A56G	0.07

Variant	self-cleavage
A15U G33A U54A A65U	0.16
A15U G30A U60A U67C	0.09
A15U U26A U60A	0.29
A15U U25C U69C	0.28
A15U C44U U51C A64G U78C	0.11
A15U U25C A35C U41A A57G	0.32
A15U U25C A35U C44U U54A A77U	0.23
A15U U26A U69A U72A	0.1
A15U U31A C40G A45U	0.09
A15U G19U A28G C40U	0.12
A15U U25C U54G A64G	0.18
A15U U26G A65U U76A	0.04
A15U G22U U67C C68U	0.12
A15U C37U A56U A65U U80C	0.1
A15U G33A C34U A45G U54C	0.17
A15U U26A U54C U60A A65G U78C U80C	0.28
A15U U31A U67C	0.12
A15U U25A U31C A45C G63A	0.08
A15U G22A A45G U51C A57G	0.14
A15U U26G U31A C68A G70A	0.03
A15U G24A C38A G42A U66C	0.07
A15U C68G A77C	0.14
A15U U25C A65G A77G	0.1
A15U U26G A35C U43C A45G G73A U80C	0.53

Variant	self-cleavage
A15U U25C U26C C59U U66A U69C	0.15
A15U U26C U41C U49C U60A C79U	0.08
A15U G19A U25C U54A	0.26
A15U G70C U76C U78C	0.11
A15U G52U U67C	0.12
A15U U31A C32U A57G A64G	0.06
A15U C38A A47G A56G A77G U80C	0.07
A15U U26A A57U U72A G73A	0.7
A15U U26C A64G	0.23
A15U G16A U43C A56G U80C	0.44
A15U U25C U26C U60A G70A A77G	0.07
A15U G30U U43A U54A U60A	0.07
A15U G19U A45G A47G U48C A56U A64U	0.03
A15U U31A A57U A75G A77U	0.14
A15U U26C A56C A57G U69A U72A	0.13
A15U U25C U26C C62U	0.2
A15U C38A U51C A64G	0.22
A15U U25C U72A	0.08
A15U U25C U72G	0.15
A15U U26A U31C U51A U66C	0.16
A15U G63A A64U U80G	0.15
A15U U26A U31G U41G G70C	0.04
A15U U26A G36A U43C A45G U66A U67A	0.34
A15U U26C U49G	0.1

Variant	self-cleavage
A15U U31A A57C U60C	0.12
A15U U26A C34G U60A	0.07
A15U G24A A47C U58C U80G	0.06
A15U U25C A64U U72A U78C	0.08
A15U G30A U74C	0.09
A15U U25C A57G	0.22
A15U U25C U78C	0.16
A15U U26C C40U U54A	0.08
A15U C40U U43C U48C U60A U67C	0.09
A15U C59U U60A	0.2
A15U G30A U67C	0.13
A15U U26C C29U C62U U66C	0.04
A15U U25G U51C A77G U78C	0.09
A15U U25C U67C	0.13
A15U G16U A18U U41A A57G A64U U80C	0.17
A15U U26C U54C G73A	0.72
A15U U26A A47G U72C	0.47
A15U U25A U43C	0.07
A15U G16U A20G U43C A56G U80C	0.39
A15U U26A G33A U43G U67C	0.04
A15U G19U G24C	0.28
A15U U31A G46A U78G	0.1
A15U G30C U41A U51A	0.31
A15U C38U U54C	0.74

Variant	self-cleavage
A15U U25A A28G U69C	0.13
A15U U31A G33U G46A U48C	0.07
A15U G19U A57G	0.13
A15U G30U A35C U60A	0.1
A15U U25C A28C U49C U78C	0.06
A15U G19A U58G U66C	0.15
A15U U26A A35G U58C	0.27
A15U U25C A64G U67G	0.09
A15U U26C U41A U72A U78A U80C	0.28
A15U G16A A56G	0.52
A15U G16U U48C G61C U66C U76G	0.01
A15U U25C G30U	0.09
A15U C44U U76C	0.24
A15U U26A U43C U69C	0.15
A15U G52A A64G U78A	0.98
A15U U26C U60A	0.1
A15U U25C U26C A45G U78C	0.25
A15U G19C A20U A28G U43A C44U U80C	0.05
A15U C38G A45G	0.16
A15U U26G A28G G30A A65U	0.08
A15U G19U A21G A57G A64G U69C U72C	0.06
A15U U26A C27A C68A U72A U78C	0.1
A15U G24A G30U	0.41
A15U G30U U60A U67C	0.1

Variant	self-cleavage
A15U G52C G53A U54G A57G U60C	0.22
A15U U26C U72A	0.14
A15U G16C U31A G42U U58C U72A	0.11
A15U U25C U31A A35U C39U U41A	0.05
A15U U25C U66C U72C	0.16
A15U U26C U54A	0.22
A15U G24A U43C A65G	0.18
A15U G63U A64G A65G U66A	0.01
A15U G16C U54G U58C U72A G73A	0.06
A15U U25C C39U A47G U49C U51G U54C	0.15
A15U C50G A56U A75U	0.23
A15U C59A A64C A77U	0.08
A15U U25C A28G C32A C39A U51C	0.09
A15U G63A U72C	0.9
A15U G24A A45G A47G G52C U67C U80A	0.06
A15U G36A U69C G70A	0.23
A15U U26A A64G	0.26
A15U U26C A56G U78A	0.28
A15U G16U A28U C39U G53A U69C U78C	0.06
A15U U26C U31C A56G U80A	0.62
A15U C44A A75G	0.04
A15U U26C U43A	0.26
A15U G33A U41A U67C	0.4
